The text below walks through data of patent US8815842B2 (priority 2006, dated 2014).

The structures appear in SMILES notation.

For this series the following is noted: 1% T-1105 compounded feed for pigs, 24 hours. An excerpt:
30 g of T-1105 was mixed with 2970 g of commercially available feeds for pigs (JA ZEN-NOH) to obtain 3000 g of 1% T-1105 compounded feed.

As for `NC(=O)c1nccnc1O` [T-1105, 3-oxo-3,4-dihydro-2-pyrazinecarboxamide], the “stability in compounded feed” value was “stable without being degraded”.
